For 84 variants, self-cleavage results are on record in the RNAGym collection of RNA variant scans (doi:10.1093/nar/gkz1192).

The source gives no read counts; variants with many changes may rest on few reads.

First the molecules themselves.
B1: CPEB3 Ribozyme (parent)
chain: UAACAGGGGGCCACAGCAGAAGCGUUCACGUCGCAGCCCCUGUCAGAUUCUGGUGAAUCUGCGAAUUCUGCUGUAUAUCUC

The variants in this data set derive from B1. The data set is described as follows: self-cleavage, relative activity (ratio to wild type); higher = more cleavage; in vitro, sequencing. In a few lines:
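CPEB3 self-cleaving ribozyme mutant libraries were made by rounds of error-prone PCR, barcoded, and transcribed in vitro with T7 RNA polymerase for 5 hours at 37°C. Cleavage occurred during transcription and a 15 min DNase I step before EDTA stop. RNAs were reverse transcribed with template switching and Illumina-sequenced, with DNA sequencing mapping barcodes to variants. Relative activity is the variant's cleaved/total read fraction divided by wild type's (minimum 5 reads), averaged across three batches.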
With A15G A18U A35C, the self-cleavage was determined as 0.33.

With A15G A18U C32U U51G C59A, the self-cleavage worked out at 0.

Consider A15G A20G A21G A28G C44A, for which the self-cleavage was found to be 0.46.

As for A15G A35U A47U U67C, the self-cleavage amounted to 0.15.

Take A15G A18G U51A U54A U66C: the self-cleavage amounted to 0.16.

Take A15G C17A A21G U48C A64U U66C U80C: the self-cleavage worked out at 0.22.

Turning to A15G A18G U25A A57U, the self-cleavage is 0.06.

Take A15G A18U U69G: the self-cleavage was determined as 0.88.

Take A15G A20U C29U U69C U80C: the self-cleavage was 0.12.

Take A15G A35U U41C A64U: the self-cleavage came to 0.18.

Consider A15G C23U A45G A47U U80C, for which the self-cleavage was determined as 0.06.

Regarding A15G C40U A56U U60C U69C A75G U76C, the self-cleavage was found to be 0.1.

A15G A20C U48C U80A: the self-cleavage stood at 0.7.

With A15G A21G U25C C27A U58C U66C, the self-cleavage was found to be 0.09.

As to A15G C23G A28U U41C U43C, the self-cleavage came to 0.09.

With A15G C23A U72C U80A, the self-cleavage came out at 0.07.

Consider A15G A56U A64U A77G, for which the self-cleavage worked out at 0.32.

Turning to A15G G24A A57U A65G A77G, the self-cleavage came to 0.08.

Consider A15G A20U U49C U60A, for which the self-cleavage was 0.14.

In the case of A15G G22A U80C, the self-cleavage was 0.1.

A15G A35U C39A G70A U78C: the self-cleavage is 0.03.

In the case of A15G A20G A35U, the self-cleavage was 0.59.

As for A15G A18U U26A U76A, the self-cleavage amounted to 0.1.

As for A15G A18G C38A U43C A47U A65U U80C, the self-cleavage is 0.06.

Take A15G A18G C27A A28G A45G U67C: the self-cleavage was 0.11.

As for A15G A21G U26A A45U U60C A64G, the self-cleavage is 0.09.

Regarding A15G A64U U66C, the self-cleavage is 0.25.

With A15G A20G U31C C44U U72C, the self-cleavage turned out to be 0.07.

For A15G A20U G53A A56G U69A U72C, the self-cleavage was 0.1.

With A15G G42A U69A A75G, the self-cleavage is 0.48.

Take A15G A20G G30A A56G U80C: the self-cleavage is 0.06.

Take A15G A18G A56G U69C U80C: the self-cleavage was 0.47.

With A15G A21G U48C C62A, the self-cleavage came out at 0.2.

In the case of A15G A28U G36U U41C A77U, the self-cleavage came out at 0.24.

As to A15G A64G U66C A77G, the self-cleavage is 0.14.

With A15G A20U G30U U43C U49C U51C C62U, the self-cleavage was 0.05.

As to A15G A21G U26A, the self-cleavage was determined as 0.31.

For A15G A18G U25C U41C C71U U76C U80G, the self-cleavage amounted to 0.05.

With A15G A18G U25C U31A U43C A47G A64G, the self-cleavage was 0.36.

Turning to A15G A20U U69C, the self-cleavage turned out to be 0.19.

As for A15G G30A A75G, the self-cleavage worked out at 0.07.

In the case of A15G A35U A56C, the self-cleavage was determined as 0.24.

Regarding A15G A35G G52U A56G U72A, the self-cleavage was 0.3.

As for A15G G24A C38U U43C U51A A56G A65G, the self-cleavage worked out at 0.03.

For A15G G16A A20U A28U G42A U54C, the self-cleavage worked out at 0.02.

Turning to A15G C38G U41C U43C U78C, the self-cleavage turned out to be 0.23.

Regarding A15G A45C U72A, the self-cleavage is 0.08.

For A15G A28G U60C A64G U69A U74A, the self-cleavage turned out to be 0.23.

With A15G A47G A56U G63A, the self-cleavage worked out at 0.27.

On to A15G A56G U78C, for which the self-cleavage came out at 0.49.

For A15G A57U U66C, the self-cleavage stood at 0.19.

Turning to A15G A21G C23U A28G, the self-cleavage amounted to 0.36.

Consider A15G A35G U43C U54A, for which the self-cleavage was determined as 0.34.

In the case of A15G A21G U31C, the self-cleavage is 0.41.

For the variant A15G C17U U51C A57C, the self-cleavage is 0.17.

Turning to A15G A21G A28G U48A, the self-cleavage came out at 0.22.

Turning to A15G G24U U41C A45U U58C, the self-cleavage is 0.07.

Consider A15G G30A A56G, for which the self-cleavage was 0.4.

For A15G C17A U48C, the self-cleavage amounted to 0.07.

With A15G G42A U43C, the self-cleavage came to 0.27.

Consider A15G A35U U54G U67C C68A U76A, for which the self-cleavage turned out to be 0.11.

As to A15G A21G G30A U41A U58C, the self-cleavage turned out to be 0.18.

For the variant A15G C17U A21G U48C, the self-cleavage turned out to be 0.33.

For the variant A15G A45G U69A, the self-cleavage was 0.23.

In the case of A15G A20G A65G, the self-cleavage was found to be 0.15.

On to A15G A21G U48G U60C, for which the self-cleavage was determined as 0.22.

Take A15G A28U A35G U41A U51C A64G: the self-cleavage was 0.05.

On to A15G A20G U43C A75G, for which the self-cleavage worked out at 0.19.

Turning to A15G A35U U48A, the self-cleavage came to 0.2.

In the case of A15G A20G U54A U58C, the self-cleavage stood at 0.3.

Take A15G A45C U80A: the self-cleavage was 0.34.

Turning to A15G A21U U51C U60C U76A, the self-cleavage came to 0.16.

Turning to A15G C39A A45G, the self-cleavage worked out at 0.07.

Turning to A15G C29U U41C, the self-cleavage was 0.18.

A15G A18U U43C U66C: the self-cleavage worked out at 0.45.

In the case of A15G A28C A57G, the self-cleavage came to 0.2.

For the variant A15G G42A C59A, the self-cleavage came out at 0.24.

A15G A28U A35U U41A U54C A64G: the self-cleavage was 0.14.

For the variant A15G A18U U25C U31C C38G U60C, the self-cleavage stood at 0.03.

With A15G A45G U66C, the self-cleavage was found to be 0.54.

Consider A15G G63A U67C, for which the self-cleavage is 0.21.

Take A15G C37G A45G A56G: the self-cleavage was found to be 0.39.

On to A15G C34U A45G A56G U74C U80A, for which the self-cleavage was 0.3.

For A15G A64U U78A U80C, the self-cleavage was 0.34.
